The list shows a part of the results.
Columns and labels:
Assay in all cases: glycan array binding signal (z-score within array); higher = stronger binding
Conditions in all cases: glycan notation: IUPAC condensed, linker removed
[1] = molecular target: Fuc(a1-2)Gal
In short: (§1)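 The Consortium for Functional Glycomics database supplied 3228 glycan arrays, of which those lacking an available protein sequence were dropped. The binding signal, a within-array Z-score, was averaged across arrays of the same protein sequence and across linkers. Negative scores can be read as non-binding.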

[2] = molecular target: Fuc(a1-2)Gal(b1-3)GalNAc
In short: as §1

[3] = molecular target: Fuc(a1-2)Gal(b1-3)GalNAc(a1-3)[Fuc(a1-2)]Gal(b1-4)Glc
In short: as §1

[4] = molecular target: Fuc(a1-2)Gal(b1-3)GalNAc(a1-3)[Fuc(a1-2)]Gal(b1-4)GlcNAc
In short: as §1

[5] = molecular target: Fuc(a1-2)Gal(b1-3)GalNAc(b1-3)Gal
In short: as §1

[6] = molecular target: Fuc(a1-2)Gal(b1-3)GalNAc(b1-3)Gal(a1-4)Gal(b1-4)Glc
In short: as §1

[7] = molecular target: Fuc(a1-2)Gal(b1-3)GalNAc(b1-4)[Neu5Ac(a2-3)]Gal(b1-4)Glc
In short: as §1

[8] = molecular target: Fuc(a1-2)Gal(b1-3)GlcNAc
In short: as §1

[9] = molecular target: Fuc(a1-2)Gal(b1-3)GlcNAc(b1-2)Man(a1-3)[Fuc(a1-2)Gal(b1-3)GlcNAc(b1-2)Man(a1-6)]Man(b1-4)GlcNAc(b1-4)GlcNAc
In short: as §1

[10] = molecular target: Fuc(a1-2)Gal(b1-3)GlcNAc(b1-2)Man(a1-3)[Fuc(a1-2)Gal(b1-3)GlcNAc(b1-2)Man(a1-6)]Man(b1-4)GlcNAc(b1-4)[Fuc(a1-6)]GlcNAc
In short: as §1

[11] = molecular target: Fuc(a1-2)Gal(b1-3)GlcNAc(b1-3)Gal(b1-4)Glc
In short: as §1

[12] = molecular target: Fuc(a1-2)Gal(b1-3)GlcNAc(b1-3)GalNAc
In short: as §1

[13] = molecular target: Fuc(a1-2)Gal(b1-3)GlcNAc(b1-3)[Fuc(a1-2)Gal(b1-3)GlcNAc(b1-6)]GalNAc
In short: as §1

[14] = molecular target: Fuc(a1-2)Gal(b1-3)GlcNAc(b1-3)[Gal(b1-4)GlcNAc(b1-6)]Gal(b1-4)Glc
In short: as §1

[15] = molecular target: Fuc(a1-2)Gal(b1-3)GlcNAc(b1-3)[Neu5Ac(a2-6)Gal(b1-4)GlcNAc(b1-6)]Gal(b1-4)Glc
In short: as §1

[16] = molecular target: Fuc(a1-2)Gal(b1-3)GlcNAc6S
In short: as §1

[17] = molecular target: Fuc(a1-2)Gal(b1-3)[Fuc(a1-4)]GlcNAc
In short: as §1

[18] = molecular target: Fuc(a1-2)Gal(b1-3)[Fuc(a1-4)]GlcNAc(b1-2)Man(a1-3)[Fuc(a1-2)Gal(b1-3)[Fuc(a1-4)]GlcNAc(b1-2)Man(a1-3)]Man(b1-4)GlcNAc(b1-4)GlcNAc
In short: as §1

[19] = molecular target: Fuc(a1-2)Gal(b1-3)[Fuc(a1-4)]GlcNAc(b1-2)Man(a1-3)[Fuc(a1-2)Gal(b1-3)[Fuc(a1-4)]GlcNAc(b1-2)Man(a1-6)]Man(b1-4)GlcNAc(b1-4)[Fuc(a1-6)]GlcNAc(b1-4)[Fuc(a1-6)]GlcNAc
In short: as §1

[20] = molecular target: Fuc(a1-2)Gal(b1-3)[Fuc(a1-4)]GlcNAc(b1-3)[Fuc(a1-3)[Gal(b1-4)]GlcNAc(b1-6)]Gal(b1-4)Glc
In short: as §1

[21] = molecular target: Fuc(a1-2)Gal(b1-3)[Fuc(a1-4)]GlcNAc(b1-3)[Gal(b1-4)GlcNAc(b1-6)]Gal(b1-4)Glc
In short: as §1

[22] = molecular target: Fuc(a1-2)Gal(b1-4)Glc
In short: as §1

[23] = molecular target: Fuc(a1-2)Gal(b1-4)Glc6S
In short: as §1

[24] = molecular target: Fuc(a1-2)Gal(b1-4)GlcNAc
In short: as §1

[25] = molecular target: Fuc(a1-2)Gal(b1-4)GlcNAc(b1-2)Man
In short: as §1

[26] = molecular target: Fuc(a1-2)Gal(b1-4)GlcNAc(b1-2)Man(a1-3)[Fuc(a1-2)Gal(b1-4)GlcNAc(b1-2)Man(a1-6)]Man(b1-4)GlcNAc(b1-4)GlcNAc
In short: as §1

[27] = molecular target: Fuc(a1-2)Gal(b1-4)GlcNAc(b1-2)Man(a1-3)[Fuc(a1-2)Gal(b1-4)GlcNAc(b1-2)Man(a1-6)]Man(b1-4)GlcNAc(b1-4)[Fuc(a1-6)]GlcNAc
In short: as §1

[28] = molecular target: Fuc(a1-2)Gal(b1-4)GlcNAc(b1-2)[Fuc(a1-2)Gal(b1-4)GlcNAc(b1-4)]Man(a1-3)[Fuc(a1-2)Gal(b1-4)GlcNAc(b1-2)Man(a1-6)]Man(b1-4)GlcNAc(b1-4)GlcNAc
In short: as §1

[29] = molecular target: Fuc(a1-2)Gal(b1-4)GlcNAc(b1-3)Gal(b1-4)GlcNAc
In short: as §1

[30] = molecular target: Fuc(a1-2)Gal(b1-4)GlcNAc(b1-3)Gal(b1-4)GlcNAc(b1-2)Man(a1-3)[Fuc(a1-2)Gal(b1-4)GlcNAc(b1-3)Gal(b1-4)GlcNAc(b1-2)Man(a1-6)]Man(b1-4)GlcNAc(b1-4)GlcNAc
In short: as §1

B1: PNGase F (Flavobacterium meningosepticum) (protein)
chain: GIPAPADNTVNIKTFDKVKNAFGDGLSQSAEGTFTFPADVTAVKTIKMFIKNECPNKTCDEWDRYANVYVKNKTTGEWYEIGRFITPYWVGTEKLPRGLEIDVTDFKSLLSGNTELKIYTETWLAKGREYSVDFDIVYGTPDYKYSAVVPVVQYNKSSIDGVPYGKAHTLALKKNIQLPTNTEKAYLRTTISGWGHAKPYDAGSRGCAEWCFRTHTIAINNSNTFQHQLGALGCSANPINNQSPGNWTPDRAGWCPGMAVPTRIDVLNNSLIGSTFSYEYKFQNWTNNGTNGDAFYAISSFVIAKSNTPISAPVVTNLDPHHHHHH
glycan array binding signal (z-score) [1]: 0.042
glycan array binding signal (z-score) [2]: -0.232
glycan array binding signal (z-score) [3]: -0.255
glycan array binding signal (z-score) [4]: -0.194
glycan array binding signal (z-score) [5]: 1.61
glycan array binding signal (z-score) [6]: -0.124
glycan array binding signal (z-score) [7]: -0.266
glycan array binding signal (z-score) [8]: -0.147
glycan array binding signal (z-score) [9]: 0.18
glycan array binding signal (z-score) [10]: -0.023
glycan array binding signal (z-score) [11]: -0.232
glycan array binding signal (z-score) [12]: -0.098
glycan array binding signal (z-score) [13]: 0.162
glycan array binding signal (z-score) [14]: -0.346
glycan array binding signal (z-score) [15]: -0.183
glycan array binding signal (z-score) [16]: -0.123
glycan array binding signal (z-score) [17]: -0.192
glycan array binding signal (z-score) [18]: 0.438
glycan array binding signal (z-score) [19]: -0.102
glycan array binding signal (z-score) [20]: -0.347
glycan array binding signal (z-score) [21]: -0.246
glycan array binding signal (z-score) [22]: 0.092
glycan array binding signal (z-score) [23]: 0.271
glycan array binding signal (z-score) [24]: -0.196
glycan array binding signal (z-score) [25]: 0.429
glycan array binding signal (z-score) [26]: -0.299
glycan array binding signal (z-score) [27]: -0.088
glycan array binding signal (z-score) [28]: -0.019
glycan array binding signal (z-score) [29]: -0.311
glycan array binding signal (z-score) [30]: -0.235
